No constants are given. Whether binding was seen depends on the method and setting. Binding seen in cells or lysates may run through a third protein. Some binding calls cover weakened binding; strength is not graded here. For some of these results: Sequences can lack the tags named with a protein.
Key:
Assay in all cases: co-IP
HA-tagged EDC3 = biological target: T1, HA-tagged EDC3 (UniProt Q96F86)
T1 sequence: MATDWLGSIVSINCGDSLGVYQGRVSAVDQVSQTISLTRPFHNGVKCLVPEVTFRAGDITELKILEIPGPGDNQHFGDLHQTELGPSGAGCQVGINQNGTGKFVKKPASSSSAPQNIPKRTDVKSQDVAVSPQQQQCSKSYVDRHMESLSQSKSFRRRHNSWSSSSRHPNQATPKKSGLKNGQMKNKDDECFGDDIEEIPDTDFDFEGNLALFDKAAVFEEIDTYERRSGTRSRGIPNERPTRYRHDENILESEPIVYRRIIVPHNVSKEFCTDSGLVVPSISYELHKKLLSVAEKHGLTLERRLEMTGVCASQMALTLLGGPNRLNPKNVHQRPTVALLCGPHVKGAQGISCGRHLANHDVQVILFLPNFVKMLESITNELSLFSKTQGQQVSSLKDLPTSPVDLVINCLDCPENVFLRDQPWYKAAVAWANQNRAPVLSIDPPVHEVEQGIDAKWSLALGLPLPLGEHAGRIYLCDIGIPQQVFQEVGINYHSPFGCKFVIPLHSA

Sequences of proteins named here, by UniProt entry; tags and fusion partners are left off.
UniProt Q05127: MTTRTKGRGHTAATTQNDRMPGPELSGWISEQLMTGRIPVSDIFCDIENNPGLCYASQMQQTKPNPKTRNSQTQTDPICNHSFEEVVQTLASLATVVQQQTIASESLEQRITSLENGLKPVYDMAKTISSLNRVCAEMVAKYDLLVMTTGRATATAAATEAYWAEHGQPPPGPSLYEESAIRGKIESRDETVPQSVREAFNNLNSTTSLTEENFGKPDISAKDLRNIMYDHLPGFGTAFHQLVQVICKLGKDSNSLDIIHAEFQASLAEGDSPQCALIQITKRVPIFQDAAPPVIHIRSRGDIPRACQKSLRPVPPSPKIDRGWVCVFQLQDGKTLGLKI

HA-tagged DCP1B = biological target: T2, HA-tagged DCP1B (UniProt Q8IZD4)
T2 sequence: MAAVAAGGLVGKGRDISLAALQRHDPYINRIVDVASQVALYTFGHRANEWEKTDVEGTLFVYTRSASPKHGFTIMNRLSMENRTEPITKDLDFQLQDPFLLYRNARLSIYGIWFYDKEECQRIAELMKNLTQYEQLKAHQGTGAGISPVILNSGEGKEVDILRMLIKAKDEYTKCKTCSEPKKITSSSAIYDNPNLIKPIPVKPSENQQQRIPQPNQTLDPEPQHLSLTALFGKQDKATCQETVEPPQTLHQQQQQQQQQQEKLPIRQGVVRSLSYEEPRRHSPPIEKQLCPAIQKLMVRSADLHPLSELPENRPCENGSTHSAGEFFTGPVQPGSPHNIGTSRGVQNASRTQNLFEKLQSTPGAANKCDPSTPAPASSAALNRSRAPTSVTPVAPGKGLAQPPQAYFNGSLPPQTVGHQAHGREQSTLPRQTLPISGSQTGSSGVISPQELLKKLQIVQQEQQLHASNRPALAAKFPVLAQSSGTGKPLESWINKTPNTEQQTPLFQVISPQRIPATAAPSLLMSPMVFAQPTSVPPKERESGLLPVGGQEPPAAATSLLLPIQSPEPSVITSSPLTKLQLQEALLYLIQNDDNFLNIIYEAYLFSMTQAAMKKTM

HA-tagged DCP2 = HA-tagged DCP2 (UniProt Q8IU60)
HA-tagged DCP1A = biological target: T3, HA-tagged DCP1A (UniProt Q9NPI6)
T3 sequence: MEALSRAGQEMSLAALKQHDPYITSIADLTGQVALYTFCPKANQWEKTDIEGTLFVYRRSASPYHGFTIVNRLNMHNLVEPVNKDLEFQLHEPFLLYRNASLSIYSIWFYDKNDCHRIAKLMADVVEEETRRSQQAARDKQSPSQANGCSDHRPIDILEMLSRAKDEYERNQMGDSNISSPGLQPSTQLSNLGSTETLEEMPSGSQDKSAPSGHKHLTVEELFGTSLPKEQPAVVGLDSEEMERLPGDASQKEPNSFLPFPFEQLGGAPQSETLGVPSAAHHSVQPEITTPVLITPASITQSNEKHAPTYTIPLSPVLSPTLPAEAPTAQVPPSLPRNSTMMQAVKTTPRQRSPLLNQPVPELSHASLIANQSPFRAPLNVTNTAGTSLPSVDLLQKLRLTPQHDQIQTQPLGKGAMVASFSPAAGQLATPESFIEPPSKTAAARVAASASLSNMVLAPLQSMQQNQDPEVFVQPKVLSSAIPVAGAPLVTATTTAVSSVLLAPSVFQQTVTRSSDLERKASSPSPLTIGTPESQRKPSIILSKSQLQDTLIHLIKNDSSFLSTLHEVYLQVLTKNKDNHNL

[1] = biological target: T4, HA-tagged full-length EDC4 (residues 1-1401) (UniProt Q6P2E9)
T4 sequence: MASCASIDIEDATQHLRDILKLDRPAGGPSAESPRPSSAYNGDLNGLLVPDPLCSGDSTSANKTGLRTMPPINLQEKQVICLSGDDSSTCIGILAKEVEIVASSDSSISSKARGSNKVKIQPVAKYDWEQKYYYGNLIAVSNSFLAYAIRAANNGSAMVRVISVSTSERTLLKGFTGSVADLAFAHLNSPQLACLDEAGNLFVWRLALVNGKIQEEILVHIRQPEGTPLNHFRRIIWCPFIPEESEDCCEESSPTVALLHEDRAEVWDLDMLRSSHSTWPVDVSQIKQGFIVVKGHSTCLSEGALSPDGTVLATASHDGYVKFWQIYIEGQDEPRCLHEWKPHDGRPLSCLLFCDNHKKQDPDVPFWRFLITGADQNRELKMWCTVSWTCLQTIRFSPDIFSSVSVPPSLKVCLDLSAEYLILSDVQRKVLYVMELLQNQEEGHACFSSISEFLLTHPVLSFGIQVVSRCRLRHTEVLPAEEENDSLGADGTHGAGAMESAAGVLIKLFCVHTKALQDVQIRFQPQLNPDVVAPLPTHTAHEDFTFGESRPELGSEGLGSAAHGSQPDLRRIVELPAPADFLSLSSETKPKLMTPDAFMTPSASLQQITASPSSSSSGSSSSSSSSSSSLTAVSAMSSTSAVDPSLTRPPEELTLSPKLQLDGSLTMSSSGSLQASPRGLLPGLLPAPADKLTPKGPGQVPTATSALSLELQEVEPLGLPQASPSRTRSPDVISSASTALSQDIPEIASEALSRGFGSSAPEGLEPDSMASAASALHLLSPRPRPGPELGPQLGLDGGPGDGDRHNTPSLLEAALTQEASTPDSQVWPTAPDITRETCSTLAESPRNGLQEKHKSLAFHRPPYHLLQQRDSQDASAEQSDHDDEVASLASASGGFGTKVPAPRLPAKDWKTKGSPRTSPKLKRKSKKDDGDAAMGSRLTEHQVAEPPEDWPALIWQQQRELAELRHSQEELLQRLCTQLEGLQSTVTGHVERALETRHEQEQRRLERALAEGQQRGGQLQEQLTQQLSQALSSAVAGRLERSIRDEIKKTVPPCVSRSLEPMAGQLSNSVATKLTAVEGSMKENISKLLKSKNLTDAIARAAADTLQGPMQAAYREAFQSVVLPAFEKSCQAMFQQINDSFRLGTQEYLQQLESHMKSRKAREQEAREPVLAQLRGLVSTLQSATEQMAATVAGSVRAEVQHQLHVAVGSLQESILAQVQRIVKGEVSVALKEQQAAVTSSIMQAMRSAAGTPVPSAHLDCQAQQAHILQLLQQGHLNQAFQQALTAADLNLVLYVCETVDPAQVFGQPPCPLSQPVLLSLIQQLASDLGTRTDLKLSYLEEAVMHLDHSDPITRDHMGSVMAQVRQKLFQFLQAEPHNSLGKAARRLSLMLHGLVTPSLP

[2] = biological target: HA-tagged EDC4 flexible linker and C-terminal alpha-helical domain (residues 538-1401) (UniProt Q6P2E9)
[3] = biological target: FLAG-tagged VP35 (Ebola virus (EBOV)) (UniProt Q05127)

Molecule: FLAG-tagged VP35 (from UniProt Q05127 1-340)
- binding (HA-tagged EDC3): no binding
- binding (HA-tagged DCP1B): no binding
- binding (HA-tagged DCP2): no binding
- binding (HA-tagged DCP1A): no binding
- binding [1]: binds
- binding [2]: binds

B1: HA-tagged full-length EDC4 (residues 1-1401) (protein, UniProt Q6P2E9 1-1401)
chain: MASCASIDIEDATQHLRDILKLDRPAGGPSAESPRPSSAYNGDLNGLLVPDPLCSGDSTSANKTGLRTMPPINLQEKQVICLSGDDSSTCIGILAKEVEIVASSDSSISSKARGSNKVKIQPVAKYDWEQKYYYGNLIAVSNSFLAYAIRAANNGSAMVRVISVSTSERTLLKGFTGSVADLAFAHLNSPQLACLDEAGNLFVWRLALVNGKIQEEILVHIRQPEGTPLNHFRRIIWCPFIPEESEDCCEESSPTVALLHEDRAEVWDLDMLRSSHSTWPVDVSQIKQGFIVVKGHSTCLSEGALSPDGTVLATASHDGYVKFWQIYIEGQDEPRCLHEWKPHDGRPLSCLLFCDNHKKQDPDVPFWRFLITGADQNRELKMWCTVSWTCLQTIRFSPDIFSSVSVPPSLKVCLDLSAEYLILSDVQRKVLYVMELLQNQEEGHACFSSISEFLLTHPVLSFGIQVVSRCRLRHTEVLPAEEENDSLGADGTHGAGAMESAAGVLIKLFCVHTKALQDVQIRFQPQLNPDVVAPLPTHTAHEDFTFGESRPELGSEGLGSAAHGSQPDLRRIVELPAPADFLSLSSETKPKLMTPDAFMTPSASLQQITASPSSSSSGSSSSSSSSSSSLTAVSAMSSTSAVDPSLTRPPEELTLSPKLQLDGSLTMSSSGSLQASPRGLLPGLLPAPADKLTPKGPGQVPTATSALSLELQEVEPLGLPQASPSRTRSPDVISSASTALSQDIPEIASEALSRGFGSSAPEGLEPDSMASAASALHLLSPRPRPGPELGPQLGLDGGPGDGDRHNTPSLLEAALTQEASTPDSQVWPTAPDITRETCSTLAESPRNGLQEKHKSLAFHRPPYHLLQQRDSQDASAEQSDHDDEVASLASASGGFGTKVPAPRLPAKDWKTKGSPRTSPKLKRKSKKDDGDAAMGSRLTEHQVAEPPEDWPALIWQQQRELAELRHSQEELLQRLCTQLEGLQSTVTGHVERALETRHEQEQRRLERALAEGQQRGGQLQEQLTQQLSQALSSAVAGRLERSIRDEIKKTVPPCVSRSLEPMAGQLSNSVATKLTAVEGSMKENISKLLKSKNLTDAIARAAADTLQGPMQAAYREAFQSVVLPAFEKSCQAMFQQINDSFRLGTQEYLQQLESHMKSRKAREQEAREPVLAQLRGLVSTLQSATEQMAATVAGSVRAEVQHQLHVAVGSLQESILAQVQRIVKGEVSVALKEQQAAVTSSIMQAMRSAAGTPVPSAHLDCQAQQAHILQLLQQGHLNQAFQQALTAADLNLVLYVCETVDPAQVFGQPPCPLSQPVLLSLIQQLASDLGTRTDLKLSYLEEAVMHLDHSDPITRDHMGSVMAQVRQKLFQFLQAEPHNSLGKAARRLSLMLHGLVTPSLP
- binding [3]: binds

From PMC12475165 (Nature Communications, 2025)
